Residue numbers refer to the chain shown, from its start. Groups on a side chain read outwards from the residue. No end group written: not given here. NSMP = not defined here
T1: BSA-conjugated Aβ heptapeptide FFAEDVC (C-terminal Cys coupled to NSMP-activated BSA)
T1 construct: also called Peptide 19-24
T1 peptide: FFAEDVC

T2: BSA-conjugated Aβ heptapeptide AEFRHDC (C-terminal Cys coupled to NSMP-activated BSA)
T2 construct: also called Peptide 2-7
T2 peptide: AEFRHDC

T3: BSA-conjugated Aβ heptapeptide VFFAEDC (C-terminal Cys coupled to NSMP-activated BSA)
T3 construct: also called Peptide 18-23
T3 peptide: VFFAEDC

T4: BSA-conjugated Aβ heptapeptide LVFFAEC (reading uncertain; also: BSA conjugate)
T4 construct: also called Peptide 17-22
T4 peptide: LVFFAEC([NSMP-BSA])

B1: MS-Roche #8.2 Fab (Fab, V domains shown)
VH: [not shown - about 100 residues]LLSRGYNGYYHKFDVWGQGTLVTVSS
VL: DIVLTQSPATLSLSPGERATLSCRASQSVSSSYLAWYQQKPGQAPRLLIYGASSRATGVPARFSGSGSGTDFTLTISSLEPEDFATYYCQQLSSYPPTFGQGTKVEIKR
B2: MS-Roche #7.4 Fab (Fab, V domains shown)
VH: [not shown - about 100 residues]GKGNTHKPYGYVRYFDVWGQGTLVTVSS
VL: B1 VL with T86V, L92I, S93Y, S94N, Y95F, P97H
notes: also called MS-R #7.4
B3: MS-Roche #8 Fab (Fab, V domains shown)
VH: [not shown - about 100 residues]LLSRGYNGYYHKFDVWGQGTLVTVSS
VL: B1 VL with Y95F
notes: parental HuCAL Fab; also called MSR-8 Fab; MS-R 8
B4: MS-Roche #8.1 Fab (Fab, V domains shown)
VH: [not shown - about 100 residues]LLSRGYNGYYHKFDVWGQGTLVTVSS
VL: B1 VL with S94N
B5: MS-Roche #7.3 Fab (Fab, V domains shown)
VH: [not shown - about 100 residues]GKGNTHKPYGYVRYFDVWGQGTLVTVSS
VL: B1 VL with T86V, Q90H, L92V, S93Y, Y95H, P97F
B6: MS-R #3.3 IgG1 (antibody, V domains shown)
VH: [not shown - about 100 residues]LTHYARYYRYFDVWGQGTLVTVSS
VL: B1 VL with T86V, Q90H, L92M
notes: also called MS-R IgG 3.3
B7: MS-R #8.1 IgG1 (antibody, V domains shown)
VH: [not shown - about 100 residues]LLSRGYNGYYHKFDVWGQGTLVTVSS
VL: B1 VL with S94N
notes: full-length human IgG1
B8: MS-Roche #3.3 Fab (Fab, V domains shown)
VH: [not shown - about 100 residues]LTHYARYYRYFDVWGQGTLVTVSS
VL: B1 VL with T86V, Q90H, L92M

Target: T1, BSA-conjugated Aβ heptapeptide FFAEDVC
Experiment: ELISA

Row | OD ratio 19-24/BSA | Peptide-ratio 19-24/2-7 | Binder
1 | 23 | 0.72 | B1
2 | 6 | 0.17 | B2
3 | 25 | 0.89 | B3
4 | 8 | 0.27 | B4
5 | 9 | 0.26 | B5

Target: T2, BSA-conjugated Aβ heptapeptide AEFRHDC
Experiment: ELISA

Row | OD ratio 2-7/BSA | Binder
6 | 32 | B1
7 | 36 | B2
8 | 28 | B3
9 | 30 | B4
10 | 34 | B5

Target: T3, BSA-conjugated Aβ heptapeptide VFFAEDC
Experiment: ELISA

Row | OD ratio 18-23/BSA | Peptide-ratio 18-23/2-7 | Binder
11 | 28 | 0.88 | B1
12 | 13 | 0.36 | B2
13 | 29 | 1.04 | B3
14 | 11 | 0.37 | B4
15 | 15 | 0.44 | B5

Target: T4, BSA-conjugated Aβ heptapeptide LVFFAEC
Experiment: ELISA

Row | OD ratio 17-22/BSA | Peptide-ratio 17-22/2-7 | Binder
16 | 4 | 0.13 | B1
17 | 10 | 0.28 | B2
18 | 10 | 0.36 | B3
19 | 11 | 0.32 | B5

Target: T1, BSA-conjugated Aβ heptapeptide FFAEDVC
Experiment: ELISA
Remark: another data set of the same source

Row | OD ratio 19-24/BSA | Peptide-ratio 19-24/2-7 | Binder
20 | 11 | 0.65 | B6
21 | 14 | 0.88 | B7

Target: T2, BSA-conjugated Aβ heptapeptide AEFRHDC
Experiment: ELISA
Remark: another data set of the same source

Row | OD ratio 2-7/BSA | Binder
22 | 17 | B6
23 | 16 | B7

Target: T3, BSA-conjugated Aβ heptapeptide VFFAEDC
Experiment: ELISA
Remark: another data set of the same source

Row | OD ratio 18-23/BSA | Peptide-ratio 18-23/2-7 | Binder
24 | 16 | 0.94 | B6
25 | 16 | 1 | B7

Target: T4, BSA-conjugated Aβ heptapeptide LVFFAEC
Experiment: ELISA
Remark: another data set of the same source

Row | OD ratio 17-22/BSA | Peptide-ratio 17-22/2-7 | Binder
26 | 11 | 0.65 | B6
27 | 7 | 0.44 | B7

target: T5, human Aβ (1-40) peptide (human); experiment: SPR, immobilized fibers
T5 construct: also called Aβ1-40 fibers

Row | Kd [nM] | Binder
28 | 24 | B1
29 | 28 | B2
30 | 38 | B8
31 | 24 | B4
32 | 23 | B5

target: T6, Aβ (1-42) peptide (human); experiment: SPR, immobilized fibers
T6 construct: also called Aβ1-42 fibers; Aβ4

Row | Kd [nM] | Binder
33 | 64 | B1
34 | 103 | B2
35 | 1000 | B3
36 | 104 | B8
37 | 42 | B4
38 | 88 | B5

target: T5, human Aβ (1-40) peptide; experiment: SPR, immobilized fibers; remark: another data set of the same source

Row | Kd [nM] | Binder
39 | 6.6 | B7

target: T6, Aβ (1-42) peptide; experiment: SPR, immobilized fibers; remark: another data set of the same source

Row | Kd [nM] | Binder
40 | 6.6 | B6
41 | 12.3 | B7

target: T5, human Aβ (1-40) peptide; experiment: SPR, immobilized fibers; remark: another data set of the same source

Row | Kd [nM] | Binder
42 | 3.7 | B6
43 | 6.6 | B7

target: T6, Aβ (1-42) peptide; experiment: SPR, immobilized fibers; remark: another data set of the same source

Row | Kd [nM] | Binder
44 | 6.6 | B6
45 | 12.3 | B7

From patent US20100172907A1 (Hoffmann-La Roche, published 2010)
